Measurements reported in paper PMC4336329 (PLoS ONE, 2015).
Among all 310,000 compounds or so, about 14,000 (4.5%) showed an effect of 50% or more. Effects have a minus sign here. The list shows a part of the results.

The compounds below were run against human ether-à-go-go-related gene (hERG) potassium channel (human, UniProt Q12809) (assay: primary screen, population patch clamp on CHO cells stably expressing hERG).
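Further: peak tail current of the secondary pulse compared with the same well before compound.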

Chain of human ether-à-go-go-related gene (hERG) potassium channel (Q12809 whole entry, looked up): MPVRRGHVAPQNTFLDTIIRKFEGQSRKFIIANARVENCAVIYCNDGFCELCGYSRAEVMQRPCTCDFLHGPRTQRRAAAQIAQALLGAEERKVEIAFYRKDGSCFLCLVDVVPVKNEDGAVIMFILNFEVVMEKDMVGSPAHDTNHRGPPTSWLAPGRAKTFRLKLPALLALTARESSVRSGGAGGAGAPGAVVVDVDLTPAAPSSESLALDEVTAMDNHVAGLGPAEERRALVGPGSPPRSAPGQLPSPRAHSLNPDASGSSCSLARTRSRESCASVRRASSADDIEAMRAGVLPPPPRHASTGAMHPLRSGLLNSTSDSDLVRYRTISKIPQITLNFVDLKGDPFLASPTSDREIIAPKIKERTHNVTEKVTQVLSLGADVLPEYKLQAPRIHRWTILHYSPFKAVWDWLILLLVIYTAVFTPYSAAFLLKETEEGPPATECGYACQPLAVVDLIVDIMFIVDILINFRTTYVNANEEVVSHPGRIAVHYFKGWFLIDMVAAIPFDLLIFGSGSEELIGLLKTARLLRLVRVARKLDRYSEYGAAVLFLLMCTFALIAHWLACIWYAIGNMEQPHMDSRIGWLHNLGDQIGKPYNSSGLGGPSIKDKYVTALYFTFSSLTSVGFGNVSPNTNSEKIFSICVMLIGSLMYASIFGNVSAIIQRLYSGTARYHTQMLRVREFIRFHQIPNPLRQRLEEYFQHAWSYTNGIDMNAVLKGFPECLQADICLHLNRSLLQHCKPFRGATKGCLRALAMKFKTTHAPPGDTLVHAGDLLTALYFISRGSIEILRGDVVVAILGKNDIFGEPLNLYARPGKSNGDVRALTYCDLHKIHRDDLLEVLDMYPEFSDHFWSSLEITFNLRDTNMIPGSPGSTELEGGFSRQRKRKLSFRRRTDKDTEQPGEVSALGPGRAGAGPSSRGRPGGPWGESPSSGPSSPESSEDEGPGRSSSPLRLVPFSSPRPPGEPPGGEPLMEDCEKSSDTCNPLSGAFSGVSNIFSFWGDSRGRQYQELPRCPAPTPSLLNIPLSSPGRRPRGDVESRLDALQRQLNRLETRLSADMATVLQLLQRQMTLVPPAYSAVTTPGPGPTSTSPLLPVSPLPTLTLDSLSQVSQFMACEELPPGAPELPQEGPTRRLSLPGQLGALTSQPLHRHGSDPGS

With `COc1ccc(Br)cc1-c1noc(-c2ccncc2)n1` as the compound, how does the “hERG current change (%, negative = inhibition) at 10uM” value read?
Its value is 13.7%.

How did the “hERG current change (%, negative = inhibition) at 10uM” value turn out when `CCOC(=O)c1cccc(NC(=O)CSc2nc3ccccc3c(=O)n2CC)c1` was run?
The value was 15.4%.

How did the “hERG current change (%, negative = inhibition) at 10uM” value turn out when `CC(C)(C)CN1C(=O)C(=O)NC[C@@H]1Cc1ccc(O)cc1` was run?
The value was 10.8%.

How did the “hERG current change (%, negative = inhibition) at 10uM” value turn out when `COCCN(C(=O)CSc1nc2ccccc2c(=O)n1C(C)COC)c1c(N)n(Cc2ccccc2)c(=O)[nH]c1=O` (centres unmarked) was run?
Its value is 12.3%.

Which “hERG current change (%, negative = inhibition) at 10uM” value does the source give for `CCC(c1nnnn1C(C)(C)C)N(Cc1ccco1)Cc1cc2cccc(C)c2[nH]c1=O` (centres unmarked) here?
The value was -7.84%.

For `OCCC1CN(Cc2cnc(N3CCCC3)s2)CCN1Cc1ccccc1` (centres unmarked), which “hERG current change (%, negative = inhibition) at 10uM” value is on record?
Its value is -0.21%.

Which “hERG current change (%, negative = inhibition) at 10uM” value does the source give for `O=C(NC1CCCCCC1)C1CCN(C(=O)c2ccc(Br)cc2)CC1` here?
The value was 4.43%.

`COc1ccc(N2CCN(C(=O)CNC(=O)Cc3ccc(Cl)cc3)CC2)cc1` was tested. Which “hERG current change (%, negative = inhibition) at 10uM” value did it give?
Its value is -8.38%.

For `COc1ccccc1CNC(=O)C(NC(=O)C1CCCCC1)C(C)C` (centres unmarked), which “hERG current change (%, negative = inhibition) at 10uM” value is on record?
Its value is 1.84%.

For `O=C1C=C(O)CC(c2ccco2)C1` (centres unmarked), which “hERG current change (%, negative = inhibition) at 10uM” value is on record?
Its value is 9.75%.

`Cc1cccc(Cn2c(N(C)CCO)nc3c2c(=O)[nH]c(=O)n3C)c1` was tested. Which “hERG current change (%, negative = inhibition) at 10uM” value did it give?
The value was -5.06%.

Which “hERG current change (%, negative = inhibition) at 10uM” value does the source give for `CCOC(=O)C(c1ccccc1)C(Nc1ccc(Cl)c(Cl)c1)c1ccccn1` (centres unmarked) here?
The value was 7.94%.

`CC(C)C(=O)Nc1cccc(C(=O)NCCc2ccc(S(N)(=O)=O)cc2)c1` was tested. Which “hERG current change (%, negative = inhibition) at 10uM” value did it give?
Its value is 2.02%.

`CCN(CC)C(=O)Nc1ccc(Br)cc1` was tested. Which “hERG current change (%, negative = inhibition) at 10uM” value did it give?
Its value is 11.9%.

How did the “hERG current change (%, negative = inhibition) at 10uM” value turn out when `Cc1ccc(-c2nnc(N3CCN(C(=O)COc4ccccc4)CC3)c3ccccc23)cc1` was run?
Its value is -52.1%.

For `Cl.O=C(CN1CCC(NC(=O)c2ccccc2F)CC1)Nc1ccc2c(c1)OCCO2`, which “hERG current change (%, negative = inhibition) at 10uM” value is on record?
Its value is 6.04%.

`O=C(C1CCN(S(=O)(=O)c2cccc([N+](=O)[O-])c2)CC1)N1CCOCC1` was tested. Which “hERG current change (%, negative = inhibition) at 10uM” value did it give?
Its value is 0.701%.

Which “hERG current change (%, negative = inhibition) at 10uM” value does the source give for `O=C(NCC1COCCO1)c1ccc2nc(Cc3cccc(Cl)c3)oc2c1` (centres unmarked) here?
Its value is -0.787%.

How did the “hERG current change (%, negative = inhibition) at 10uM” value turn out when `Cc1ccc(OCn2c(=O)sc3ccccc32)cc1` was run?
Its value is -0.855%.

For `COc1ccc(OC)c(CNC(=O)C2CCCN(c3nc4ccccc4o3)C2)c1` (centres unmarked), which “hERG current change (%, negative = inhibition) at 10uM” value is on record?
The value was -14.9%.

`CC(C)Oc1cccc(C(=O)NC(=S)Nc2ccc3c4c(cccc24)CC3)c1` was tested. Which “hERG current change (%, negative = inhibition) at 10uM” value did it give?
The value was 14.9%.

Which “hERG current change (%, negative = inhibition) at 10uM” value does the source give for `CCC(=O)Nc1sc2c(c1C(N)=O)CCN(Cc1ccccc1)C2.Cl` here?
Its value is -53.3%.

Which “hERG current change (%, negative = inhibition) at 10uM” value does the source give for `COc1ccc(CCN(C)c2ccc(S(=O)(=O)N3CCCC3)cc2[N+](=O)[O-])cc1OC` here?
Its value is -16.2%.

With `COCCNCCCCOc1ccc(Br)cc1C.O=C(O)C(=O)O` as the compound, how does the “hERG current change (%, negative = inhibition) at 10uM” value read?
Its value is -36.7%.

How did the “hERG current change (%, negative = inhibition) at 10uM” value turn out when `CC(C)Oc1ccc(C(=O)Nc2ccccc2N2CCOCC2)cc1` was run?
The value was -36.3%.

With `COc1cc(CN2CCC(n3nccc3NC(=O)CCCc3ccccc3)CC2)ccc1O` as the compound, how does the “hERG current change (%, negative = inhibition) at 10uM” value read?
Its value is -31.1%.

`CCN(C(=O)C1=COCCO1)c1nc2c(C)cccc2s1` was tested. Which “hERG current change (%, negative = inhibition) at 10uM” value did it give?
Its value is -17.2%.

`COc1ccc(C(=O)CC(=O)C(=O)Nc2ccc(C)c(Cl)c2)cc1` was tested. Which “hERG current change (%, negative = inhibition) at 10uM” value did it give?
Its value is 9.75%.

For `O=C(CN1CC(c2ccccc2)CC1=O)OCc1cccc(Br)c1` (centres unmarked), which “hERG current change (%, negative = inhibition) at 10uM” value is on record?
The value was -30.1%.

With `Cc1c(C(=O)NNC(=S)Nc2ccc(S(N)(=O)=O)cc2)oc2ccccc12` as the compound, how does the “hERG current change (%, negative = inhibition) at 10uM” value read?
The value was 34.4%.

With `CCCCN(CCCC)S(=O)(=O)c1ccc2oc(C(=O)N3CCOCC3)c(C)c2c1` as the compound, how does the “hERG current change (%, negative = inhibition) at 10uM” value read?
Its value is -10.2%.

Which “hERG current change (%, negative = inhibition) at 10uM” value does the source give for `Cc1ccccc1OCC(=O)N=Nc1c(O)n(C)c2ccccc12` here?
The value was -34.3%.

With `COc1ccc(C(C(=O)NC2CCCC2)N(C(=O)c2ccco2)c2ccc(OC)c(OC)c2)cc1` (centres unmarked) as the compound, how does the “hERG current change (%, negative = inhibition) at 10uM” value read?
The value was -3.08%.

How did the “hERG current change (%, negative = inhibition) at 10uM” value turn out when `O=C(NNC(=S)Nc1ccc(Br)cc1Cl)c1ccncc1` was run?
Its value is 36.7%.

For `COC(=O)C1=C(c2cccc(OC)c2OC)C[C@@H]2CC[C@H]1N2C(=O)NCCO`, which “hERG current change (%, negative = inhibition) at 10uM” value is on record?
The value was 7.37%.

`O=P(CCN1CCCCC1)(c1ccccc1)c1ccccc1` was tested. Which “hERG current change (%, negative = inhibition) at 10uM” value did it give?
The value was -5.98%.

Which “hERG current change (%, negative = inhibition) at 10uM” value does the source give for `CCC(=O)N(Cc1cc(=O)[nH]c2ccccc12)c1ccccc1` here?
The value was 0.356%.

How did the “hERG current change (%, negative = inhibition) at 10uM” value turn out when `Cc1nn(-c2ccccn2)c2c1C(c1ccncc1)C1=C(CC(C)(C)CC1=O)N2` (centres unmarked) was run?
The value was -50.8%.

With `CS(=O)(=O)NCc1nnc2n1-c1ccc(Cl)cc1C(c1ccccc1)=NC2` as the compound, how does the “hERG current change (%, negative = inhibition) at 10uM” value read?
Its value is 6.2%.

Which “hERG current change (%, negative = inhibition) at 10uM” value does the source give for `CCOc1ccc(OCc2ccc(C(=O)NN)o2)cc1` here?
Its value is 3.42%.

`CC(C)c1ccc(NC2CCCN(C(=O)CCCn3cncn3)C2)cc1` (centres unmarked) was tested. Which “hERG current change (%, negative = inhibition) at 10uM” value did it give?
The value was -37.5%.

Which “hERG current change (%, negative = inhibition) at 10uM” value does the source give for `O=C(NCCc1ccccc1)C1CCN(S(=O)(=O)N2CCCCC2)CC1` here?
The value was 2.19%.

For `C/C(=N/NS(=O)(=O)c1ccc(Br)cc1)c1ccc(NC(=O)c2ccc(C)o2)cc1`, which “hERG current change (%, negative = inhibition) at 10uM” value is on record?
The value was 0.797%.

How did the “hERG current change (%, negative = inhibition) at 10uM” value turn out when `CCCN(CCC)CC(O)Cn1cc(/C=C/C(=O)c2cccs2)c2ccccc21` (centres unmarked) was run?
The value was -30.7%.

For `FC(F)(F)c1cnc(NNC(=S)Nc2ccc(Cl)cc2)c(Cl)c1`, which “hERG current change (%, negative = inhibition) at 10uM” value is on record?
The value was 6.05%.

With `CCNc1ccc(C(=O)O)cc1N` as the compound, how does the “hERG current change (%, negative = inhibition) at 10uM” value read?
Its value is 9.77%.

Which “hERG current change (%, negative = inhibition) at 10uM” value does the source give for `COc1ccc(C2=NOC(COc3ccc4c(C)cc(=O)oc4c3)C2)c(OC)c1` (centres unmarked) here?
The value was -11%.

For `CC(=O)c1cccc(NC(=O)c2ccc(S(=O)(=O)N3CCCC3)cc2)c1`, which “hERG current change (%, negative = inhibition) at 10uM” value is on record?
The value was 21.1%.

`COc1ccc(NS(=O)(=O)c2c(F)cccc2F)cc1S(=O)(=O)N1CCOCC1` was tested. Which “hERG current change (%, negative = inhibition) at 10uM” value did it give?
The value was 6.82%.

With `Cc1cccc(NC(NC(=O)c2cccnc2)C(Cl)(Cl)Cl)c1` (centres unmarked) as the compound, how does the “hERG current change (%, negative = inhibition) at 10uM” value read?
Its value is -10.6%.

Which “hERG current change (%, negative = inhibition) at 10uM” value does the source give for `Cc1ccccc1-c1nc(CN2CCC(C(=O)NCCC3=CCCCC3)CC2)c(C)o1` here?
The value was -66.7%.

For `O=C1CC(N2CCOCC2)C(=O)N1CCc1ccccc1` (centres unmarked), which “hERG current change (%, negative = inhibition) at 10uM” value is on record?
The value was 6.86%.

How did the “hERG current change (%, negative = inhibition) at 10uM” value turn out when `CCNC(=S)NC1CC2CCC(C1)N2Cc1ccccc1` (centres unmarked) was run?
Its value is -20.3%.

`Cc1ccc(NC(=O)CSc2nc(N)cc(=O)[nH]2)cc1Cl` was tested. Which “hERG current change (%, negative = inhibition) at 10uM” value did it give?
Its value is 6.98%.

With `CCc1ccc(S(=O)(=O)Nc2ccccn2)cc1` as the compound, how does the “hERG current change (%, negative = inhibition) at 10uM” value read?
Its value is -0.296%.

With `CC(=O)N1CC(C)Sc2ccc(S(=O)(=O)NC3CCCCC3)cc21` (centres unmarked) as the compound, how does the “hERG current change (%, negative = inhibition) at 10uM” value read?
The value was 6.06%.
